Test results from the supplement of paper PMC12217912.
Some of the results follow. Sequences were assembled here from the parent chain. Inactive controls read about 0.05.

B1: TEV protease; numbered along this chain (parent)
chain: MGESLFKGPRDYNPISSSICHLTNESDGHTTSLYGIGFGPFIITNKHLFRRNNGTLVVQSLHGVFKVKDTTTLQQHLVDGRDMIIIRMPKDFPPFPQKLKFREPQREERICLVTTNFQTKSMSSMVSDTSCTFPSGDGIFWKHWIQTKDGQCGSPLVSTRDGFIVGIHSASNFTNTNNYFTSVPKNFMELLTNQEAQQWVSGWRLNADSVLWGGHKVFMVKPEEPFQPVKEATQL

Variants of: B1
Experiment: raw area under fraction-flipped curve 0-4 h after induction (AUC4h, not background-subtracted), DNA-recorder readout of cleavage of the substrate (dimensionless); higher = more cleavage of the substrate by the protease variant
Conditions: temperature: 34 °C; time window: 0-4 h after rhamnose induction
Experimental: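 In vivo DNA recorder in E. coli TOP10(DE3) ΔrhaA at 34 °C. Each TEVp single-site mutant (parent TEVp 0) is paired with a single-site variant of the 7-mer TEVs (canonical ENLYFQ|S). The substrate sits between flexible linkers in a Bxb1-sfGFP-TEVs-SsrA fusion, so cleavage stabilises Bxb1 and speeds flipping of a recombination array, read by NGS. The value is the raw area under the fraction-flipped curve over 0-4 h after rhamnose induction (AUC4h), with ≥20 reads per time point. It is not background-subtracted; inactive controls average about 0.047.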
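Also: Bxb1 expression induced with 0.2% (w/v) L-rhamnose at OD600 near 0.5, cultures sampled hourly, flipped fraction per protease–substrate barcode pair counted by paired-end Illumina sequencing.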

| Variant | area with substrate ENAYFQS | area with substrate ENCYFQS | area with substrate ENDYFQS | area with substrate ENEYFQS | area with substrate ENGYFQS | area with substrate ENHYFQS | area with substrate ENIYFQS | area with substrate ENKYFQS | area with substrate ENNYFQS | area with substrate ENPYFQS | area with substrate ENQYFQS | area with substrate ENRYFQS | area with substrate ENSYFQS | area with substrate ENVYFQS | area with substrate ENWYFQS | area with substrate ENYYFQS | area with substrate ENFYFQS | area with substrate ENTYFQS | area with substrate ENMYFQS |
| --- | --- | --- | --- | --- | --- | --- | --- | --- | --- | --- | --- | --- | --- | --- | --- | --- | --- | --- | --- |
| S17F | 0.0611 | 0.062 | 0.0594 | 0.0561 | 0.0602 | 0.0604 | 0.104 | 0.0575 | 0.0547 | 0.054 | 0.0562 | 0.0602 | 0.083 | 0.0698 | 0.0043 | 0.0639 |  |  |  |
| S17Q | 0.0683 | 0.0655 | 0.0606 | 0.0588 | 0.0524 | 0.0386 | 0.11 | 0 | 0.0704 | 0.0433 | 0.0569 | 0.038 |  | 0.0761 |  | 0.0735 | 0.0645 | 0.0622 |  |
| S18K | 0.0549 |  | 0.0557 | 0.0363 | 0.0556 |  | 0.0772 |  | 0.0648 | 0.0562 | 0.0584 | 0.0519 | 0.0562 | 0.0494 | 0.0455 |  |  | 0.0678 |  |
| S18R | 0.0427 | 0.0687 | 0.0496 | 0.0599 | 0.0456 | 0.058 | 0.0839 | 0.0529 | 0.0487 |  | 0.0622 | 0.0589 | 0.0689 | 0.0611 | 0.0594 | 0.0518 | 0.0553 | 0.0476 | 0.0728 |
| I19H | 0.0409 | 0.0535 | 0.0552 | 0.0456 | 0.049 | 0.0609 | 0.117 | 0.0628 | 0.0629 | 0.0565 | 0.06 | 0.0493 | 0.0567 | 0.0553 | 0.0425 |  | 0.0456 | 0.0486 | 0.0572 |
| C20M | 0.0648 | 0.0678 | 0.0517 | 0.0516 | 0.0565 | 0.0503 | 0.0877 |  | 0.0579 |  | 0.0575 | 0.0545 | 0.0623 | 0.0664 |  | 0.0534 | 0.0563 | 0.0588 |  |
| C20R | 0.051 | 0.0496 | 0.0463 | 0.0558 | 0.0409 | 0.0594 |  | 0.0391 | 0.0506 | 0.0457 | 0.0628 | 0.0453 | 0.0621 | 0.0489 |  | 0.0451 | 0.0507 | 0.0436 |  |
| H21D | 0.0654 | 0.064 | 0.111 | 0.0636 | 0.0378 | 0.0563 | 0.0701 | 0.0345 | 0.0648 | 0.0636 | 0.0558 |  |  | 0.0591 | 0.0047 | 0.0647 |  |  | 0.0628 |
| H21G | 0.0899 | 0.0617 | 0.0595 | 0.0613 | 0.059 |  | 0.0988 | 0.0628 | 0.063 | 0.0727 | 0.0371 | 0.0595 | 0.0601 | 0.0727 | 0.0546 | 0.0578 | 0.0619 | 0.0595 |  |
| H21N | 0.0645 | 0.0682 | 0.0597 | 0.0642 | 0.0449 |  |  | 0.0624 | 0.0596 | 0.0553 | 0.0676 | 0.0591 | 0.0608 | 0.0585 | 0.0477 | 0.0649 |  |  | 0.0726 |
| H21W | 0.0544 | 0.0766 | 0.0556 | 0.0546 | 0.0647 | 0.0628 | 0.0873 | 0.0396 | 0.0594 |  |  | 0.0399 | 0.0614 | 0.0773 |  |  | 0.064 | 0.0688 | 0.0823 |
